The other results are listed elsewhere or left out. The main result of the screen is listed elsewhere. These columns were measured beside it and carry no call. Compounds called inactive in the main read-out are mostly missing here.
Assay: reversal of MRP1-mediated doxorubicin resistance, primary screen, H69AR cells, doxorubicin co-treatment (AID 602)
Conditions: CellTiter-Glo, 72 h, at 10 µM
[1] = H69AR cells + 2 uM doxorubicin, measured here: viability with 2 uM doxorubicin, stronger effect = lower value
[2] = H69AR cells, measured here: cytotoxicity without doxorubicin

## Cc1ccc(NC(=O)N(Cc2ccc3c(c2)OCO3)Cc2cc3cc4c(cc3[nH]c2=O)OCCO4)cc1
[1]
  viability: 29.8%
[2]
  viability: 85.1%

## Cn1nnnc1SCC(=O)Nc1nc(-c2ccccc2)c(-c2ccccc2)o1
[1]
  viability: 27.9%
[2]
  viability: 87.7%

## CCOc1ccccc1Nc1nc(N)nc(CN(C)C2CCCCC2)n1
[1]
  viability: 1.51%
[2]
  viability: 81.2%

## COc1cc(OC)cc(-c2nnc(SCC(=O)Nc3cc(C)on3)o2)c1
[1]
  viability: 1.55%
[2]
  viability: 65.9%

## Cn1c(=O)c(NCCc2ccccc2)c2c3c(cccc31)C(=O)c1ccccc1-2
[1]
  viability: 27.2%
[2]
  viability: 90.9%

## CCOC(=O)N1CCN(C(=O)CSc2nc3c(c(=O)n2-c2ccccc2OC)SCC3)CC1
[1]
  viability: 31.4%
[2]
  viability: 88.7%

## COC(=O)c1ccccc1NC(=O)c1cccs1
[1]
  viability: 32.7%
[2]
  viability: 88.8%

## CCOC(=O)c1c(NC(=O)OC)sc(C(=O)N(CC)CC)c1C
[1]
  viability: 2.73%
[2]
  viability: 79%

## COC(=O)Nc1ccc(S(=O)(=O)Nc2ccc(O)cc2)cc1
[1]
  viability: 39.1%
[2]
  viability: 98.8%

## Cc1ccc(C=Nc2ccc(N(C)C)cc2)o1
[1]
  viability: 2.8%
[2]
  viability: 67.6%

## N#CC1=C(N)N(c2ccc(Br)cc2)C2=C(C(=O)CCC2)C1c1cccnc1 (stereo unspecified)
[1]
  viability: 24.1%
[2]
  viability: 82.9%

## O=C(c1ccc(CS(=O)(=O)c2ccc(Br)cc2)o1)N1CCN(C2CCCCC2)CC1
[1]
  viability: 18.4%
[2]
  viability: 92.4%

## CC1CN(c2nc3c(c(=O)n(Cc4ccc(Cl)cc4)c(=O)n3C)n2C)CC(C)O1 (stereo unspecified)
[1]
  viability: 36.6%
[2]
  viability: 94%

## COc1ccc2c(Cl)c(C(=O)NCCCn3ccnc3)sc2c1
[1]
  viability: 13.2%
[2]
  viability: 91.8%

## O=c1c2c3c(sc2n2cnnc2n1Cc1ccccc1)CN(Cc1ccccc1)CC3
[1]
  viability: 18.9%
[2]
  viability: 83.3%

## CC(C)CCn1c(=O)c2ccccc2n2c(CN(C)Cc3ccccc3)nnc12
[1]
  viability: 24.5%
[2]
  viability: 86.1%

## c1ccc(N2CCN(c3ccccc3)C2c2cccnc2)cc1
[1]
  viability: 24.7%
[2]
  viability: 84.6%

## CC(C)C(=O)N1CCN(c2ccccc2NC(=O)c2cccc(Cl)c2)CC1
[1]
  viability: 0%
[2]
  viability: 78.1%

## Cn1c(=O)c2c(nc(CN3CCN(c4ccccc4)CC3)n2Cc2c(F)cccc2Cl)n(C)c1=O
[1]
  viability: 15%
[2]
  viability: 74.8%

## Cc1ccc(N=C(NOCc2ccc(Cl)cc2Cl)c2nonc2N)c(C)c1
[1]
  viability: 8.78%
[2]
  viability: 65.8%

## O=C(O)c1ccc(-n2nnnc2SCc2ccccc2)cc1
[1]
  viability: 23.9%
[2]
  viability: 106%

## Brc1ccc(-c2nc3ncccn3c2NC2CCCCC2)o1
[1]
  viability: 18.2%
[2]
  viability: 76.1%

## Cn1c(=O)c2c(nc(N3CCCCCC3)n2Cc2cccc3ccccc23)n(C)c1=O
[1]
  viability: 16.2%
[2]
  viability: 79.8%

## CCOC(=O)N1CCC(Nc2c(Nc3ccc(C)c(C)c3)c(=O)c2=O)CC1
[1]
  viability: 32.5%
[2]
  viability: 97.5%

## Cc1nn(C)c(C)c1NC(=O)CSc1nc(C2CC2)nc2c1cnn2-c1ccccc1
[1]
  viability: 1.34%
[2]
  viability: 79.1%

## Cn1ccnc1-c1nc2ccccc2[nH]c1=O
[1]
  viability: 13.3%
[2]
  viability: 95.1%

## Cc1cc(/C=C(\C#N)C(=O)OCC(=O)NC(=O)NC(C)(C)C)c(C)n1CCC(C)C
[1]
  viability: 35.7%
[2]
  viability: 92.8%

## CC1=NN(C(N)=S)C(=O)C1N=Nc1ccccc1C (stereo unspecified)
[1]
  viability: 1.95%
[2]
  viability: 92.9%

## COc1ccc(C(=O)Nc2nc3ccccc3[nH]2)cc1OC
[1]
  viability: 2.43%
[2]
  viability: 66.6%

## Cc1ccc(C(=O)CSc2nnc(COc3cccc(C)c3)o2)cc1
[1]
  viability: 1.59%
[2]
  viability: 93.9%

## Clc1cnc(N/N=C/c2cccs2)c(Cl)c1
[1]
  viability: 1.48%
[2]
  viability: 82.7%

## CN1CCN(c2nc(-c3ccccn3)nc3ccccc23)CC1
[1]
  viability: 1.52%
[2]
  viability: 69.2%

## O=C(NCc1ccccn1)c1cn(CCc2ccccc2)nn1
[1]
  viability: 39.3%
[2]
  viability: 96.4%
